Measured values: PubChem BioAssay AID2546 (National Center for Advancing Translational Sciences (NCATS), 2010)
Out of some 310,000 compounds screened, about 11,000 (3.5%) were called active. This list was built around the results that the source calls inconclusive (neither active nor inactive); the mix of calls is not that of the screen. The call rests on the fitted dose curve; in most records, active means well fitted inhibition curve with a large enough effect; inconclusive means small, poorly fitted or top-dose-only effect, or effect the other way; inactive means flat fitted curve, though single readings scatter. No potency is given beside an inconclusive call; the fits are too rough.

Test: VP16 counterscreen qHTS for inhibitors of ROR gamma transcriptional activity;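 further: Gal4-VP16 expression switched on by copper sulfate through the metallothionein promoter; nearly all actives have a fitted effect of over 50% in size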
Conditions: Drosophila S2 Gal4-VP16 UAS-luciferase, luminescence, 20 h; series mostly up to 53.6 µM
Potency means the concentration at half of the fitted maximal effect; tags describe the fitted curve by direction and shape.

Row | Structure (SMILES) | Potency
1 | CC(C)(C)n1ncc2c(=O)n(CC(=O)NCc3ccccc3)cnc21 | inconclusive [inhibitor, single point]
2 | COc1ccc(O)c(/C=c2/sc3nc4cc(C)c(C)cc4n3c2=O)c1 | inconclusive [inhibitor, partial curve]
3 | O=C(Nc1nc(=O)c2ccccc2s1)c1ccc(F)cc1 | active: 2.82 µM
4 | Cc1ccc(NC(=O)CN2CCN(C)CC2)cc1Br | inactive
5 | CCNC(=S)Nc1cccc(F)c1C | inactive
6 | COc1ccc(NC(=O)CCCSc2nc(-c3ccco3)cc(C(F)(F)F)n2)cc1OC | inactive
7 | Cc1ccc(C)c(N2CCN(c3ncnc4c3cnn4-c3ccccc3)CC2)c1 | inactive
8 | COc1ccccc1/C=C/C=N/NC(=O)c1cccs1 | inconclusive [inhibitor, single point]
9 | c1ccc2sc(C3CCN(Cc4nnnn4Cc4ccc5c(c4)OCO5)CC3)nc2c1 | inactive
10 | CCOc1ccccc1-c1cc(C(=O)N2CCOCC2)c2ccccc2n1 | inconclusive [inhibitor, single point]
11 | O=C(NCc1ccc(Cl)cc1)C1CCN(S(=O)(=O)c2cc([N+](=O)[O-])ccc2Cl)CC1 | inconclusive [inhibitor, single point]
12 | CCOC(=O)C1CCN(C(=O)c2ccc(N(C)S(=O)(=O)c3ccc(OC)cc3)cc2)CC1 | inactive
13 | CCOC(=O)CCNC(=O)N1CCCC(C(=O)c2cc(C)c(OC)c(C)c2)C1 (stereo not given) | inactive
14 | CC(=O)N1CCc2cc(S(=O)(=O)NCCN3CCC(C)CC3)ccc21 | inactive
15 | COC(=O)c1c(N)sc2c1CCN(c1ncc(C(F)(F)F)cc1Cl)C2 | inconclusive [inhibitor, single point]
16 | COc1ccc(N(C(=O)c2ccncc2)S(=O)(=O)c2cccs2)cc1 | inconclusive [inhibitor, single point]
17 | CCOC(=O)N1CCN(C(=O)c2cc3n(n2)C(C(F)(F)F)CC(c2ccc4c(c2)OCO4)N3)CC1 (stereo not given) | inactive
18 | Cc1nn(C)c(C(=O)N/N=C/c2ccc(Br)cc2)c1Cl | inconclusive [inhibitor, single point]
19 | Cc1ccc(Nc2c(-c3ccccc3O)nc3cnccn23)cc1 | inconclusive [inhibitor, single point]
20 | CC(C)(CC(=O)N1CCN(c2ccc(Cl)cc2)CC1)CC1=NS(=O)(=O)c2ccccc2N1 | inconclusive [inhibitor, single point]
21 | Cc1ccc2nc(/C(C#N)=C/c3ccc(-c4cccc([N+](=O)[O-])c4)o3)[nH]c2c1 | inconclusive [activator, single point]
22 | C=CCn1c(C)cc(-c2csc(NCC)n2)c1C | inactive
23 | Cc1cc(C2=NNC(=NC3CC3)SC2)c(C)n1-c1ccccc1 | active: 6.31 µM
24 | Cc1ccc(S(=O)(=O)N(C)C)cc1NC(=S)NC(=O)C12CC3CC(CC(C3)C1)C2 | active: 7.08 µM
25 | Cc1cccc2c(N=O)c(O)n(CCc3ccccc3)c12 | inconclusive [inhibitor, single point]

Row | Structure (SMILES) | Potency
26 | O=c1[nH]c(C2CCCN(S(=O)(=O)c3ccccc3)C2)nc2c1nnn2Cc1ccccc1 (stereo not given) | inactive
27 | CCCOc1ccc(CNC(=S)NCc2ccc(OC(C)C)cc2)cc1 | active: 7.08 µM
28 | O=c1[nH]c(=O)n(-c2ccc(F)cc2)c2c1C(C(F)(F)F)(C(F)(F)F)N=C(c1ccc(F)cc1)N2 | active: 15.8 µM
29 | CCOc1nc(NC2CCCCC2)nc(NC(C)(C)C)n1 | active: 15.8 µM
30 | Cc1csc(CNc2ncnc3ccc(-c4c(C)noc4C)cc23)c1 | inconclusive [inhibitor, partial curve]
31 | Cc1nnc(NC(=O)c2ccco2)s1 | inconclusive [activator, single point]
32 | Cc1cccc(NS(=O)(=O)c2ccc(NC(=O)N3CCCCC3)cc2)c1 | inconclusive [inhibitor, single point]
33 | CCN(CC)S(=O)(=O)c1ccc(C)c(NC(=O)COc2ccc(Cl)cc2Br)c1 | inconclusive [inhibitor, partial curve]
34 | c1ccc2cc(CSCc3nc4ccccc4[nH]3)ccc2c1 | active: 11.2 µM
35 | COc1ccc(CN(CC2CCCO2)C(=O)CN2C(=O)C(C)Oc3ccc(C)cc32)cc1OC (stereo not given) | inactive
36 | C=CCn1c(NCc2ccc(OC)cc2O)nc2ccccc21 | inactive
37 | CC(=O)O[C@@H](C)C[N+](C)(C)C | inactive
38 | Cc1ccc(-c2csc3ncnc(-n4cnc5ccccc54)c23)cc1 | inconclusive [inhibitor, single point]
39 | COc1ccccc1C1=Nn2c(nnc2-c2ccccc2C)SC1 | inactive
40 | CC(=O)N1CCN(c2ccc(NC(=O)c3cccc(Cl)c3Cl)cc2)CC1 | inactive
41 | CNC(=S)N/N=C(\C)c1ccc(Cl)s1 | active: 1.12 µM
42 | Cc1ccc(NC(=O)c2noc3c2CCCCC3)cc1C | inconclusive [inhibitor, partial curve]
43 | O=C(CNC(=O)c1ccco1)NCC(=O)OCC(=O)c1ccc(Cl)c([N+](=O)[O-])c1 | inconclusive [inhibitor, single point]
44 | Cc1sc2nc(C(C)C)nc(SCC(=O)NCc3ccco3)c2c1C | inconclusive [inhibitor, single point]
45 | O=C(Nc1nccs1)C1(S(=O)(=O)c2ccc(Cl)cc2)CC1 | inconclusive [inhibitor, single point]
46 | Cc1ccc(C(C(=O)NC2CCCC2)N(Cc2ccc3c(c2)OCO3)C(=O)Cc2cccs2)cc1 (stereo not given) | inconclusive [inhibitor, single point]
47 | Cc1cccc(S(=O)(=O)CC(=O)Nc2nc(-c3ccccc3)cs2)c1 | inactive
48 | CCCCN(C(=O)CCC(=O)Nc1cc(C)on1)C(C(=O)NC1CCCC1)c1cccc(OC)c1 (stereo not given) | inactive
49 | C/C(=N\NC(=O)c1c(C)nc2ccccn12)c1ccccc1F | inconclusive [inhibitor, single point]
50 | Cc1cc(OCC(=O)N2CCCCCC2)ccc1[N+](=O)[O-] | inconclusive [activator, single point]

Row | Structure (SMILES) | Potency
51 | COc1ccc(Br)cc1/C=N/Nc1ccc(Cl)c(C(=O)O)c1 | inconclusive [inhibitor, full curve, poor fit]
52 | Cc1cc(C(=O)CSc2nncs2)c(C)n1Cc1ccco1 | inconclusive [inhibitor, single point]
53 | Cc1cccc2c1-c1sc(C(=O)N3CCCCC3)cc1CO2 | inconclusive [inhibitor, single point]
54 | C=CCn1c(SCC(=O)Nc2ccc(Br)cc2)nc(O)c(CC)c1=O | inconclusive [inhibitor, single point]
55 | COC(=O)c1cc2sccc2n1Cc1nc(-c2ccc(OC)cc2)oc1C | inconclusive [inhibitor, partial curve]
56 | Cc1cc(/C=N/NC(=O)c2cccc(F)c2)c(C)n1-c1ccccc1 | active: 12.6 µM
57 | COc1cccc(-c2nc(N3CCC(C)CC3)c3ccccc3n2)c1O | inactive
58 | c1ccc(Nc2nc3ccccc3o2)cc1 | inconclusive [inhibitor, single point]
59 | Cc1ccc(Cc2cnc(NC(=O)c3cccs3)s2)cc1 | active: 8.91 µM
60 | CCCSc1nsc(NC(=O)C(c2ccccc2)c2ccccc2)n1 | inactive
61 | COc1cccc(/C=N/Nc2nc(N3CCCC3)nc(N3CCCC3)n2)c1O | inconclusive [inhibitor, single point]
62 | Fc1cnc(N/N=C/c2ccc(-c3ccc(Br)cc3)o2)nc1N1CCOCC1 | inconclusive [inhibitor, single point]
63 | COc1ccc(C(=O)NC(=S)N2CCN(c3ccccc3OC)CC2)cc1 | inconclusive [inhibitor, single point]
64 | COc1cccc(C2=Nn3c(nnc3-c3ccccc3O)SC2)c1 | inconclusive [inhibitor, single point]
65 | O=C(Nc1ccc2c(c1)N(Cc1ccccc1)C(=O)c1ccccc1S2)NC1CC1 | inconclusive [inhibitor, single point]
66 | CCC1CCCCN1S(=O)(=O)c1ccc(NC(=O)c2cccs2)cc1 (stereo not given) | inactive
67 | Oc1c(CN2CCN(c3ccc(F)cc3)CC2)cc(Cl)c2cccnc12 | inconclusive [inhibitor, full curve, poor fit]
68 | Cc1ccc(C(C)NC(=S)NC2CCCCC2)cc1C (stereo not given) | active: 3.98 µM
69 | Cc1cc(C)nc(SCC(=O)Nc2cccc(S(=O)(=O)N(C)C)c2)n1 | inactive
70 | Cc1c(C(=O)OCC(=O)NC(C)c2ccccc2)oc2ccccc12 (stereo not given) | inconclusive [inhibitor, single point]
71 | COc1cc2ncnc(NCc3ccccc3C)c2cc1OC | inactive
72 | CCn1c(NC(=O)/C=C/c2ccc(F)cc2)nc2ccccc21 | inconclusive [inhibitor, single point]
73 | O=C(NNS(=O)(=O)c1ccc(F)cc1)c1ccc([N+](=O)[O-])cc1Cl | inactive
74 | COc1cc(/C=C2\SC(=S)N(CCC(=O)Nc3cccc(O)c3)C2=O)cc(OC)c1OC | inconclusive [inhibitor, single point]
75 | COc1cc(/C=C2/CCC/C(=C\c3cc(O)c(OC)c(Cl)c3)C2=O)cc(Cl)c1O | inconclusive [inhibitor, single point]
